From the supplement of paper PMC4604168 (melanoma cell lines)
This is one part of the list. Most values come without repeats; read them as rough.

Assays:
Assay in all cases: cell count relative to DMSO control; melanoma cells; higher = more viable cells
Conditions in all cases: library dose: low library concentration; 72 h; first compound 0.4 µM
MZ2-MEL = test system: MZ2-MEL
MeWo = test system: MeWo
RPMI7951 = test system: RPMI7951
RVH-421 = test system: RVH-421
SkMel28 = test system: SkMel28
SkMel2 = test system: SkMel2
SkMel30 = test system: SkMel30
UACC62 = test system: UACC62
SkMel5 = test system: SkMel5
UACC257 = test system: UACC257
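Note: cell number obtained by counting DAPI-stained nuclei in high-throughput microscope images with image analysis software, screen run in 1,536-well plates.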

Structure (SMILES) | cell count (MZ2-MEL) [%] | cell count (MeWo) [%] | cell count (RPMI7951) [%] | cell count (RVH-421) [%] | cell count (SkMel28) [%] | cell count (SkMel2) [%] | cell count (SkMel30) [%] | cell count (UACC62) [%] | cell count (SkMel5) [%] | cell count (UACC257) [%]
CCCCCCCCCCCCCCCCCCOP(=O)([O-])OC1CC[N+](C)(C)CC1 [Perifosine] + CN1CCN(c2ccc3nc(-c4c(N)c5c(F)cccc5[nH]c4=O)[nH]c3c2)CC1 [Dovitinib] (partner dose 0.1 µM) | 91.9 | 92.5 | 83.9 | 110 | 89.5 | 96.5 | 80.9 | 94.7 |  | 
Cn1sc(=O)n(Cc2ccccc2)c1=O + Nc1nc(F)nc2c1ncn2[C@@H]1O[C@H](CO)[C@@H](O)[C@@H]1O [fludarabine] (partner dose 0.2 µM) | 105 | 35.1 | 85.4 | 102 | 74.9 | 9.6 | 24.4 | 79.6 |  | 
Cn1sc(=O)n(Cc2ccccc2)c1=O + Nc1ccn([C@@H]2O[C@H](CO)[C@@H](O)C2(F)F)c(=O)n1 [gemcitabine] (partner dose 0.0004 µM) |  | 106 | 100 | 95.5 | 109 | 112 | 104 | 94.2 |  | 
C[C@@H](N)c1ccc(C(=O)Nc2ccnc3[nH]ccc23)cc1 + Cn1nnc2c(C(N)=O)ncn2c1=O [temozolomide] (partner dose 2 µM) |  | 81.1 | 90.6 | 50.9 | 67.2 | 95.3 | 97 | 91.1 |  | 
CCCCCCCCCCCCCCCCCCOP(=O)([O-])OC1CC[N+](C)(C)CC1 [Perifosine] + CO[C@H]1C[C@@H]2CC[C@@H](C)[C@@](O)(O2)C(=O)C(=O)N2CCCC[C@H]2C(=O)O[C@H]([C@H](C)C[C@@H]2CC[C@@H](OCCO)[C@H](OC)C2)CC(=O)[C@H](C)/C=C(\C)[C@@H](O)[C@@H](OC)C(=O)[C@H](C)C[C@H](C)/C=C/C=C/C=C/1C [everolimus] (partner dose 0.02 µM) |  | 78 | 76.4 | 112 | 61.6 |  | 67.8 | 66.5 |  | 
CCCCCCCCCCCCCCCCCCOP(=O)([O-])OC1CC[N+](C)(C)CC1 [Perifosine] + COc1ccc(Cl)c(Nc2nc3ccccc3nc2NS(=O)(=O)c2cccc(NC(=O)C(C)(C)N)c2)c1 [XL147] (partner dose 0.8 µM) | 98.8 | 105 | 84.7 | 94.3 | 142 | 106 | 99.7 | 119 |  | 
C[C@@H](N)c1ccc(C(=O)Nc2ccnc3[nH]ccc23)cc1 + C[C@@H](Oc1cc(-c2cnn(C3CCNCC3)c2)cnc1N)c1c(Cl)ccc(F)c1Cl [Crizotinib] (partner dose 0.2 µM) |  | 89 | 78.3 | 72.6 | 90 | 109 | 107 | 95.4 |  | 
CCCCCCCCCCCCCCCCCCOP(=O)([O-])OC1CC[N+](C)(C)CC1 [Perifosine] + Cc1ccc(Nc2nccc(N(C)c3ccc4c(C)n(C)nc4c3)n2)cc1S(N)(=O)=O [Pazopanib] (partner dose 0.4 µM) | 73.4 | 103 | 67.9 | 73.1 | 100 | 100 | 78.4 | 97.5 |  | 
Cn1sc(=O)n(Cc2ccccc2)c1=O + CCCS(=O)(=O)Nc1ccc(F)c(C(=O)c2c[nH]c3ncc(Cl)cc23)c1F [PLX4720] (partner dose 0.08 µM) | 82.7 | 101 | 103 | 70.2 | 104 | 92.2 | 108 | 63.1 |  | 
Cn1sc(=O)n(Cc2ccccc2)c1=O + CS(=O)(=O)CCNCc1ccc(-c2ccc3ncnc(Nc4ccc(OCc5cccc(F)c5)c(Cl)c4)c3c2)o1 [lapatinib] (partner dose 0.8 µM) | 92.5 | 90.8 | 87.7 | 78.4 | 98.6 | 99.6 | 92.1 | 93.5 |  | 
C[C@@H](N)c1ccc(C(=O)Nc2ccnc3[nH]ccc23)cc1 + CCN(CC)CCNC(=O)c1c(C)[nH]c(/C=C2\C(=O)Nc3ccc(F)cc32)c1C [sunitinib] (partner dose 0.4 µM) |  | 83.3 | 80 | 92.6 | 87.7 | 110 | 104 | 96.8 |  | 
Cn1sc(=O)n(Cc2ccccc2)c1=O + NCC(=O)Nc1ccc(-n2nc(C(F)(F)F)cc2-c2ccc3c(ccc4ccccc43)c2)cc1 [OSU03012] (partner dose 1 µM) |  | 53.2 | 83 | 112 | 76.9 |  | 52.8 | 86 | 83.3 | 65.5
